Data on one molecule can be found in PMC6899003.

Holding throughout (assay): co-IP; 293T cells transiently transfected with the indicated plasmids (5 µg each); lysed in 0.5% Triton X-100 buffer (20 mM Tris-HCl pH 7.5, 150 mM NaCl, 1 mM EDTA, 10% glycerol); anti-Flag or anti-HA antibody overnight at 4°C, protein A/G beads; immunoblot
For orientation: Immunoblotting shows a protein as a band on a membrane.

The target in assay [1] is T1, DDX56 (aa 191–547) (human) (UniProt Q9NY93).
T1 sequence: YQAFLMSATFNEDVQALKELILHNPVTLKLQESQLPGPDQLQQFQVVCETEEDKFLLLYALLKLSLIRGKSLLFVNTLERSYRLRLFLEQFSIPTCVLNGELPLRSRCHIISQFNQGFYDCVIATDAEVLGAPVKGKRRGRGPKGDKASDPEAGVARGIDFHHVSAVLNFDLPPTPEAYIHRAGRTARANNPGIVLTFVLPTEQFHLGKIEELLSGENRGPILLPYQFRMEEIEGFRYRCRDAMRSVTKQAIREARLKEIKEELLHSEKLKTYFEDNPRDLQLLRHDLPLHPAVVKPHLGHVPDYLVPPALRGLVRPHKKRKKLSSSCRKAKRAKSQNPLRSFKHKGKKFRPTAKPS

For another assay, the target named is T2, DDX56 (aa 1–190) (human) (UniProt Q9NY93).
T2 sequence: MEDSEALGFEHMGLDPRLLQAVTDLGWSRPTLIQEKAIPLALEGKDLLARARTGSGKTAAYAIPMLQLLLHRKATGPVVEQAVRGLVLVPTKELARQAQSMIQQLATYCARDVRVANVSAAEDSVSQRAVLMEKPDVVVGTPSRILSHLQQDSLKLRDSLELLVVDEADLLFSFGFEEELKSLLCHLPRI

In a further assay the target is T3, DDX56 D166N (human) (UniProt Q9NY93).
T3 sequence: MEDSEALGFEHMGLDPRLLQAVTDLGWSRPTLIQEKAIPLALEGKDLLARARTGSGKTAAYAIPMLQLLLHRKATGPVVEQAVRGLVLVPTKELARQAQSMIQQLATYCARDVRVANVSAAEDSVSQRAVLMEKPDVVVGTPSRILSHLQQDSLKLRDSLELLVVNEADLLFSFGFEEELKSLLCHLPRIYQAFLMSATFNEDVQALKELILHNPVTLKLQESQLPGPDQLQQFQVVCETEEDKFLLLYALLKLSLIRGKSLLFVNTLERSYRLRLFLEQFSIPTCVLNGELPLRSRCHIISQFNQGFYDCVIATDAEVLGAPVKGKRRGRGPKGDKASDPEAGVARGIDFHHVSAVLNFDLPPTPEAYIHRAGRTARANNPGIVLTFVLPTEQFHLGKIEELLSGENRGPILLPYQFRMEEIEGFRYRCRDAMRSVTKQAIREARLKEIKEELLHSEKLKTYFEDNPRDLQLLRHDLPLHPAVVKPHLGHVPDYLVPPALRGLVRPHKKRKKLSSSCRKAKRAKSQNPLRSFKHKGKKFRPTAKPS

The target in a further assay is T4, DDX56 E167Q (human) (UniProt Q9NY93).
T4 sequence: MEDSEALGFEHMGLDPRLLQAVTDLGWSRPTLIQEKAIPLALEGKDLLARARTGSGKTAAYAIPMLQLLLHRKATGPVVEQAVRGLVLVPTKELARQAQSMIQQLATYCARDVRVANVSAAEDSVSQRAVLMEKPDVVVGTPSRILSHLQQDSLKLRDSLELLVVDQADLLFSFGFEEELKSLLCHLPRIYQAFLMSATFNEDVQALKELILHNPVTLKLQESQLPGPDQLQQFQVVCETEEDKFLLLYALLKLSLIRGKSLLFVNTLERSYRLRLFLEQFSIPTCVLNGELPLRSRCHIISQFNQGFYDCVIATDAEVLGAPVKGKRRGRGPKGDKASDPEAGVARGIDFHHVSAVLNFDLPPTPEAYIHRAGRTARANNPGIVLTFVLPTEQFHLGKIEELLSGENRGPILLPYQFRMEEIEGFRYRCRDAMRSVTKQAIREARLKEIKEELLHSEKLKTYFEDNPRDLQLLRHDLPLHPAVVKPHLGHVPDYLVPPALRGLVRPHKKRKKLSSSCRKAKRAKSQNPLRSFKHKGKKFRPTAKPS

The target in assay [2] is T5, DEAD box polypeptide 56 (DDX56), Flag-tagged (human) (UniProt Q9NY93).
T5 sequence: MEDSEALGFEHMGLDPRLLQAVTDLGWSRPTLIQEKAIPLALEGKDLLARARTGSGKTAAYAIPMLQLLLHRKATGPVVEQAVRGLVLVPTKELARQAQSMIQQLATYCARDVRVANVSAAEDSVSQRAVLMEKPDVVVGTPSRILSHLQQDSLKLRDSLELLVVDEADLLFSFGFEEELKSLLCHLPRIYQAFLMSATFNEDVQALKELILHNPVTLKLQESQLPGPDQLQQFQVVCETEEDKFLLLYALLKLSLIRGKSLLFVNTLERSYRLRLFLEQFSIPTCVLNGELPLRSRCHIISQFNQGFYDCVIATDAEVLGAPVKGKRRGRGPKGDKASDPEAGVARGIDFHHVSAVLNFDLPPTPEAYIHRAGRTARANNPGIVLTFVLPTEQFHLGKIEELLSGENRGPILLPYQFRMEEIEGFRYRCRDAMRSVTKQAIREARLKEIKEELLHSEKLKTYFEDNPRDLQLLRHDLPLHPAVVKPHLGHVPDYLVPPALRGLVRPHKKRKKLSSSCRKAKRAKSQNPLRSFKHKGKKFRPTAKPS

Results are given in words; binding and its absence hold for the method and conditions named. In cells and extracts the contact can be indirect. Some results given as binding are weak or reduced against the parent protein; the word gives no strength. Sequences can lack the tags named with a protein.

B1: Interferon-regulatory factor 3 (IRF3), HA-tagged (protein, UniProt Q14653 1-427)
chain: MGTPKPRILPWLVSQLDLGQLEGVAWVNKSRTRFRIPWKHGLRQDAQQEDFGIFQAWAEATGAYVPGRDKPDLPTWKRNFRSALNRKEGLRLAEDRSKDPHDPHKIYEFVNSGVGDFSQPDTSPDTNGGGSTSDTQEDILDELLGNMVLAPLPDPGPPSLAVAPEPCPQPLRSPSLDNPTPFPNLGPSENPLKRLLVPGEEWEFEVTAFYRGRQVFQQTISCPEGLRLVGSEVGDRTLPGWPVTLPDPGMSLTDRGVMSYVRHVLSCLGGGLALWRAGQWLWAQRLGHCHTYWAVSEELLPNSGHGPDGEVPKDKEGGVFDLGPFIVDLITFTEGSGRSPRYALWFCVGESWPQDQPWTKRLVMVKVVPTCLRALVEMARVGGASSLENTVDLHISNSHPLSLTSDQYKAYLQDLVEGMDFQGPGES
In the case of B1, the binding entry in assay [1] is on record as “binds”; in the assay with DDX56 (aa 1–190) (human), “binds”; with DDX56 D166N (human) it was “no binding”; in the assay with DDX56 E167Q (human) it was “binds”; in assay [2], “binds”.
